{"source": "PubChem BioAssay AID1468", "about": "(National Center for Advancing Translational Sciences (NCATS), 2008)", "note": "The whole screen tested about 280,000 compounds, of which about 1,100 (0.39%) were called active. Inconclusive results, whose numbers are uncertain, are shown with a selection of clear calls. Calls come from the whole dose curve; as a rule, active = well fitted inhibition curve with a large enough effect; inconclusive = small, poorly fitted or top-dose-only effect, or effect the other way; inactive = flat fitted curve, though single readings scatter. Potencies of inconclusive entries are left out as doubtful fits. % is set by controls: 0 for no effect and ±100 for the full control effect; potency is the fitted concentration of half-maximal effect; tags give direction and shape of the fitted curve."}
{"target": "Microtubule-associated protein tau (Homo sapiens) (UniProt P10636)", "sequence (P10636 whole entry, looked up)": "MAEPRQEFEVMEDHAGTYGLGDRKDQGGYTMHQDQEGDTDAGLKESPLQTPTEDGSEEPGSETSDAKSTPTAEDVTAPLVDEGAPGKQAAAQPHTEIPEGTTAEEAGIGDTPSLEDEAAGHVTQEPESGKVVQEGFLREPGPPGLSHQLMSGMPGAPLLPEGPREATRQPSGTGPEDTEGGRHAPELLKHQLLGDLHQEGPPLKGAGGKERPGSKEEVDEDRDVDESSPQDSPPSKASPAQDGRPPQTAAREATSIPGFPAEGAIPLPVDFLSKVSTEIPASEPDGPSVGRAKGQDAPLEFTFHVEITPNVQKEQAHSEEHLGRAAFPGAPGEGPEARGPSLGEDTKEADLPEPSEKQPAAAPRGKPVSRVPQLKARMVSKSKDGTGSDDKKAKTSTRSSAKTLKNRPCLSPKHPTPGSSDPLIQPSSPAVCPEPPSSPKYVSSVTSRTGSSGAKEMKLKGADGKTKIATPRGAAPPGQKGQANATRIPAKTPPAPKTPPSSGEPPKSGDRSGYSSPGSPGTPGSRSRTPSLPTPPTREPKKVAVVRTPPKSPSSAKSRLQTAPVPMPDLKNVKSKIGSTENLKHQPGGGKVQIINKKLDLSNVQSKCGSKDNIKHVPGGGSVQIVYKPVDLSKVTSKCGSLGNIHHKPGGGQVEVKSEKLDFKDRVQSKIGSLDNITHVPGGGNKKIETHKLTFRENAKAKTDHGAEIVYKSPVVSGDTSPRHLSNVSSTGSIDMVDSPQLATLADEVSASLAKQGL", "assay": "qHTS for Inhibitors of Tau Fibril Formation, Fluorescence Polarization; note: nearly all actives have a fitted effect of over 55% in size", "settings": "K18 P301L tau heparin fibrillization, Alexa594 FP, 6 h; series mostly up to 57.7 µM; activity, negative = inhibition: at the top concentration", "procedure,_shortened": "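Compound effects on tau fibrillization are measured by Alexa 594 fluorescence polarization (ex 555, em 632 nm). K18 P301L tau is used at 15 uM with 0.24 uM labeled tracer, and 20 uM heparin induces aggregation over 6 hr at 37 C.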"}
{"smiles": "COc1cccc(OC)c1C(=O)Nc1cc(C)nn1-c1nc2ccccc2[nH]1", "Potency": "inconclusive [inhibitor, partial curve, poor fit]"}
{"smiles": "O=C(OCn1ncc(Br)c(Br)c1=O)c1c(F)cccc1F", "Potency": "inconclusive [inhibitor, full curve]"}
{"smiles": "CC(=O)Nc1ccc(Nc2cc(C(C)C)nc3c(-c4ccccc4)c(C)nn23)cc1", "Potency": "inconclusive [activator, full curve, poor fit]"}
{"smiles": "O=C(/C=C/c1ccc(Cl)cc1)NCc1cccs1", "activity, negative = inhibition": "inactive: 6.92%"}
{"smiles": "CC(=O)O[C@H]1C(=O)[C@@]2(C)[C@H]([C@H](OC(=O)c3ccccc3)[C@]3(O)C[C@H](OC(=O)[C@H](O)[C@@H](NC(=O)c4ccccc4)c4ccccc4)C(C)=C1C3(C)C)[C@]1(OC(C)=O)CO[C@@H]1C[C@@H]2O", "activity, negative = inhibition": "inactive: -1.77%"}
{"smiles": "CC1=NN(c2ccccc2)C(=O)/C1=C\\C=C\\c1ccccc1", "Potency": "inconclusive [inhibitor, partial curve]"}
{"smiles": "COc1cc(OC)c(N(C)C(=O)Nc2cn(CC(C)C)c(=O)c3ccccc23)cc1Cl", "activity, negative = inhibition": "inactive: 4.61%"}
{"smiles": "[O-]/[N+](=C/c1ccc(F)cc1)c1ccccc1", "activity, negative = inhibition": "inactive: -13%"}
{"smiles": "COc1ccc(-n2c(Cc3cccn3C)nnc2SCC(=O)Nc2ccc(C)cc2)cc1", "activity, negative = inhibition": "inactive: 0.557%"}
{"smiles": "COc1ccc(/C=C/C(=O)/C=C/c2ccc(OC)cc2OC)c(OC)c1", "Potency": "inconclusive [inhibitor, partial curve, poor fit]"}
{"smiles": "O=C(O)c1cc(Cl)c(Cl)cc1C(=O)Nc1cccc2cccnc12", "Potency": "inconclusive [inhibitor, single point]"}
{"smiles": "CC(C)(C)NS(=O)(=O)c1ccc(NC(=O)C(Sc2ccccc2)c2ccccc2)cc1", "note": "(stereo not given)", "Potency": "inconclusive [inhibitor, partial curve, poor fit]"}
{"smiles": "Cc1ccccc1-c1ccc(Nc2ccc(N3CCOCC3)cc2)nn1", "activity, negative = inhibition": "inactive: 8.3%"}
{"smiles": "NC(N)=NC(=S)Nc1ccc(Cl)cc1", "activity, negative = inhibition": "inactive: -2.04%"}
{"smiles": "Cc1cc2cc3c(cc2nc1SCC(=O)N1c2ccccc2CC1C)OCO3", "note": "(stereo not given)", "activity, negative = inhibition": "inactive: -11.4%"}
{"smiles": "CC(C)(C)c1ccc(CNc2ccc([N+](=O)[O-])cn2)cc1", "activity, negative = inhibition": "inactive: -10.1%"}
{"smiles": "O=C1CSC(=NC2CCCCC2)N1", "Potency": "inconclusive [inhibitor, partial curve]"}
{"smiles": "Cc1ccc(S(=O)(=O)/N=C(\\Sc2ccccc2)c2ccccc2)cc1", "Potency": "inconclusive [inhibitor, single point]"}
{"smiles": "CCN(CC)c1nc2cc(OC)ccc2cc1C#N", "activity, negative = inhibition": "inactive: -6.71%"}
{"smiles": "Cc1cccc2cc(C3CC(c4ccco4)=NN3S(=O)(=O)c3ccccc3)c(Cl)nc12", "note": "(stereo not given)", "activity, negative = inhibition": "inactive: -7.66%"}
{"smiles": "O=C(Cn1cnc([N+](=O)[O-])n1)N/N=C/c1cccc(Cl)c1", "Potency": "inconclusive [inhibitor, full curve]"}
{"smiles": "Fc1ccccc1Cc1noc(CN(Cc2ccccn2)CC2CCCO2)n1", "note": "(stereo not given)", "activity, negative = inhibition": "inactive: 1.21%"}
{"smiles": "Cc1ccc2c(c1)c1cccc3c1n2CCN3CCC(N)=O", "Potency": "inconclusive [activator, partial curve, poor fit]"}
{"smiles": "CCN1CCN(C(c2cccc(OC)c2)c2sc3nc(C)nn3c2O)CC1", "note": "(stereo not given)", "activity, negative = inhibition": "inactive: -6.89%"}
{"smiles": "O=C(NC1(C(F)(F)F)N=C2SCCN2C1=O)C1CCCCC1", "note": "(stereo not given)", "Potency": "inconclusive [inhibitor, partial curve]"}
{"smiles": "CCSc1nc(-c2cccs2)nc2ccccc12", "Potency": "inconclusive [inhibitor, single point]"}
{"smiles": "COc1ccc(NC(=O)/C(Cl)=C(/Cl)S(=O)(=O)Cc2ccc(C)cc2)cn1", "Potency": "inconclusive [inhibitor, full curve]"}
{"smiles": "Cc1ccc(NC(=O)COc2cccc(/C=C3\\SC(=S)N(CCC(=O)O)C3=O)c2)cc1Cl", "activity, negative = inhibition": "inactive: -1.19%"}
{"smiles": "O=C(Nc1ccc(Cl)cc1)N1CCCN(Cc2ccccc2F)C1", "Potency": "inconclusive [inhibitor, single point]"}
{"smiles": "COCC1C2CC[C@H]3C(OCc4ccc(OC)cc4)OC[C@]4(C)[C@H]3C2=C(CN4C(=O)OC(C)(C)C)[C@H](C)C1COC", "note": "(stereo not given in full)", "activity, negative = inhibition": "inactive: -12.4%"}
{"smiles": "CCN(CC)S(=O)(=O)c1ccc(NC(=O)Cn2c(=O)sc3ccccc32)cc1", "Potency": "inconclusive [inhibitor, partial curve]"}
{"smiles": "COc1ccc(-c2nnc(C3CCN(S(=O)(=O)c4cccc(Cl)c4)CC3)o2)cc1", "activity, negative = inhibition": "inactive: 0.423%"}
{"smiles": "N=C(N)c1ccc(N)cc1", "activity, negative = inhibition": "inactive: 1.58%"}
{"smiles": "O=[N+]([O-])c1ccc(-c2csc(NN=C3CCCC3)n2)cc1", "activity, negative = inhibition": "inactive: 2.14% [at 2.34 µM]"}
{"smiles": "COc1ccccc1NC(=O)c1ccc(NS(=O)(=O)c2cccc3cccnc23)cc1", "Potency": "inconclusive [inhibitor, full curve]"}
{"smiles": "O=C(CNc1cc(S(=O)(=O)N2CCCC2)ccc1OCC(F)(F)F)Nc1cccc(C(F)(F)F)c1", "Potency": "inconclusive [inhibitor, partial curve]"}
{"smiles": "CC(=O)c1ccc(Nc2cc(C)nc3nc(C)nn23)cc1", "activity, negative = inhibition": "inactive: -0.0191%"}
{"smiles": "COc1ccccc1S(=O)(=O)Nc1ccc(-c2nnc3n2CCCCC3)cc1", "activity, negative = inhibition": "inactive: -0.993%"}
{"smiles": "COc1ccccc1CNC(=O)COC(=O)Cn1cnc2ccccc21", "activity, negative = inhibition": "inactive: -0.908%"}
{"smiles": "Cc1cccc2sc(N(CCCN(C)C)C(=O)CCc3ccccc3)nc12", "Potency": "inconclusive [inhibitor, partial curve]"}
{"smiles": "CCOC(=O)c1[nH]c(=O)[nH]c1CSc1nc(C)cc(C)n1", "Potency": "inconclusive [inhibitor, single point]"}
{"smiles": "Oc1ccc(/C=N/Nc2nc(-c3ccc(Cl)cc3)cc(C(F)(F)F)n2)cc1", "Potency": "inconclusive [inhibitor, single point]"}
{"smiles": "CCCC(c1nnnn1C(C)(C)CC)N(Cc1ccco1)Cc1cc2ccc(OC)cc2[nH]c1=O", "note": "(stereo not given)", "activity, negative = inhibition": "inactive: -7.65%"}
{"smiles": "O=C(c1cc2cc(Br)cc(Br)c2oc1=O)N1CCCc2ccccc21", "Potency": "inconclusive [inhibitor, single point]"}
{"smiles": "COc1ccc(NC(=O)c2ccco2)cc1NC(=O)c1cc(Cl)ccc1OC", "Potency": "inconclusive [inhibitor, partial curve]"}
{"smiles": "Cc1cccc(-n2c(SCc3ccc(C#N)cc3)nnc2-c2c[nH]c3ccccc23)c1", "Potency": "inconclusive [inhibitor, single point]"}
{"smiles": "O=C(CN1CCCN(Cc2cccc(Cl)c2)S1(=O)=O)Nc1ccc2c(c1)OCCO2", "Potency": "inconclusive [inhibitor, full curve, poor fit]"}
{"smiles": "CCCCN(C(=O)C1CCC(CNS(=O)(=O)c2cccc3nsnc23)CC1)c1ccccc1", "note": "(stereo not given)", "activity, negative = inhibition": "inactive: 0.62%"}
{"smiles": "O=C(COC(=O)/C=C/c1cn(-c2ccccc2)nc1-c1ccc2c(c1)OCCO2)NC1CCS(=O)(=O)C1", "note": "(stereo not given)", "Potency": "inconclusive [inhibitor, partial curve]"}
{"smiles": "COc1ccccc1C(=O)Nc1nc2n(n1)C(c1ccc(F)cc1)C=C(c1ccc(Cl)cc1)N2", "note": "(stereo not given)", "Potency": "inconclusive [inhibitor, single point]"}
{"smiles": "Cc1c(C(=O)Nc2ccccc2[N+](=O)[O-])csc1-c1ccccc1", "Potency": "inconclusive [activator, partial curve, poor fit]"}
{"smiles": "CCOc1ccc(/C=C(\\C#N)C(=O)c2c(C)[nH]c3ccccc23)cc1OC", "Potency": "inconclusive [inhibitor, partial curve]"}
{"smiles": "Cc1cc(SC#N)cc(C)c1NC(=O)CCl", "activity, negative = inhibition": "inactive: -2.32%"}
{"smiles": "CCn1c(CSc2nc(C)cc(C)n2)nnc1SCC(=O)Nc1nc(-c2ccccc2)cs1", "Potency": "inconclusive [inhibitor, single point]"}
{"smiles": "COC(=O)/C=C/C(C)=C/C=C/C(C)=C/C=C/C=C(C)/C=C/C=C(C)/C=C/C(=O)O", "Potency": "inconclusive [inhibitor, partial curve]"}
{"smiles": "COc1cccc(C(=O)Nc2c(C(=O)Nc3ccc(F)cc3)oc3ccccc23)c1OC", "Potency": "inconclusive [inhibitor, partial curve]"}
{"smiles": "O=C(O)CCS(=O)(=O)c1ccccc1Cl", "activity, negative = inhibition": "inactive: -2.03%"}
{"smiles": "O=C(Nc1nccs1)C1CC2CCC1C2", "note": "(stereo not given)", "activity, negative = inhibition": "inactive: 2.39%"}
{"smiles": "Cn1c(Oc2ccccc2NCc2cccc(Br)c2)cc(=O)n(C)c1=O", "Potency": "inconclusive [activator, single point]"}
{"smiles": "N#CC(C#N)=C(Nc1ccc(F)cc1)SCc1cccc(Br)c1", "Potency": "inconclusive [inhibitor, partial curve, poor fit]"}
{"smiles": "CCC1(c2ccc(F)cc2)NC(=O)N(CC(=O)Nc2ccc(-c3nc4ccc(C)cc4s3)cc2)C1=O", "note": "(stereo not given)", "Potency": "inconclusive [inhibitor, partial curve]"}
{"smiles": "Cc1ccc2sc(NC(=O)CN3C(=O)c4ccccc4C3=O)nc2c1C", "Potency": "inconclusive [inhibitor, partial curve]"}
{"smiles": "Cc1ccc(O)c(NC(=O)C2=CC(c3ccco3)=NS(=O)(=O)N2C)c1", "Potency": "inconclusive [inhibitor, single point]"}
{"smiles": "Cc1cccc(OC(=O)c2sc3ncn(C)c(=O)c3c2C)c1", "Potency": "inconclusive [inhibitor, partial curve, poor fit]"}
{"smiles": "CN(Cc1ccccc1)C1CC(=O)N(c2ccc(C(=O)O)cc2)C1=O", "note": "(stereo not given)", "activity, negative = inhibition": "inactive: -1.01%"}
{"smiles": "CC(/C=C1\\SC(=S)N(NC(=O)c2ccccc2C)C1=O)=C\\c1ccccc1", "activity, negative = inhibition": "inactive: 2.42%"}
{"smiles": "O=C(Nc1nnc(CCN2CCCCC2)s1)c1ccccc1", "activity, negative = inhibition": "inactive: 9.08%"}
{"smiles": "CCOc1cccc(/C(O)=C2/C(=O)C(=O)N(CCOC)C2c2ccncc2)c1", "note": "(stereo not given)", "Potency": "inconclusive [inhibitor, single point]"}
{"smiles": "Cc1ccc2c(c1)N(C(=O)CCC(=O)NCc1cccc(F)c1)CC(C)O2", "note": "(stereo not given)", "activity, negative = inhibition": "inactive: -3.95%"}
{"smiles": "CC(=O)c1cccc(NC(=O)c2ccc3nc(Cc4ccccc4)oc3c2)c1", "Potency": "inconclusive [inhibitor, partial curve]"}
